According to article PMC4336329 (PLoS ONE, 2015):
The campaign covered roughly 310,000 compounds. About 2,200 (0.71%) showed an effect of 50% or more. Effects have a minus sign here. The list shows a part of the results.

The compounds below were run against human ether-à-go-go-related gene (hERG) potassium channel (human, UniProt Q12809) (assay: primary screen, population patch clamp on CHO cells stably expressing hERG).
Sequence of human ether-à-go-go-related gene (hERG) potassium channel (Q12809 whole entry, looked up): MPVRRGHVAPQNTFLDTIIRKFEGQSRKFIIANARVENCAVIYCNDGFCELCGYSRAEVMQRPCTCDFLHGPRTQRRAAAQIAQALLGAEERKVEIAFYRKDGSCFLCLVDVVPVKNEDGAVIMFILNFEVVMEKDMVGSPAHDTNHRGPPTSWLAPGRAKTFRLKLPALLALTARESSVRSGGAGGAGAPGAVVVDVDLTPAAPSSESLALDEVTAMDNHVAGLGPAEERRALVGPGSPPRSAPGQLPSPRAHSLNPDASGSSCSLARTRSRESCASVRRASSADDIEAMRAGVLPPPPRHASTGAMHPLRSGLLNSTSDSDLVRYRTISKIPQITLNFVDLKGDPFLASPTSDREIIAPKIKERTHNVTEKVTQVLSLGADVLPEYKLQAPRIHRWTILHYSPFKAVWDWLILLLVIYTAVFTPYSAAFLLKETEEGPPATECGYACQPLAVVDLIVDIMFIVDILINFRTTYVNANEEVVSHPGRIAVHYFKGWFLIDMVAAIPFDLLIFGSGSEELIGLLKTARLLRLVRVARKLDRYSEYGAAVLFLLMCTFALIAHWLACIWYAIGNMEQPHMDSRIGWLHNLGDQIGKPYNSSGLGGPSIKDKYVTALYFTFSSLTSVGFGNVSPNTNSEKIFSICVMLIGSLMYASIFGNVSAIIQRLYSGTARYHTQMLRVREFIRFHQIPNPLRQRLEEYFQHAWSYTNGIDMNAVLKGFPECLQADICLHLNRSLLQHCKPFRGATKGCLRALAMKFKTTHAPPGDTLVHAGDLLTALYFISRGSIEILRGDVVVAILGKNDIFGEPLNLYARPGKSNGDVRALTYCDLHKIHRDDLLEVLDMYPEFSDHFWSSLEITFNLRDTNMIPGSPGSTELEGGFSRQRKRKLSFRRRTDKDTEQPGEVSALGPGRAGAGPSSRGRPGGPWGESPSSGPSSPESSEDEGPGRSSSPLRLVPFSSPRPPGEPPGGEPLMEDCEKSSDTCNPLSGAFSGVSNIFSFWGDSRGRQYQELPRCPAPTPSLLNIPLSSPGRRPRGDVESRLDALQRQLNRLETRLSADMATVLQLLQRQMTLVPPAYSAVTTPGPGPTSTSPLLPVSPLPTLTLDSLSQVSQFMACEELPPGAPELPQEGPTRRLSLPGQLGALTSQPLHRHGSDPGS
For `CC(C)Cn1c(=O)c(C(=O)Nc2ccncc2)c(O)c2ccccc21`, the “hERG current change (%, negative = inhibition) at 1uM” value was -2.65%. `COc1ccc(C(C)=O)cc1CSc1nc2ccccc2c(=O)n1-c1ccccc1C` was tested, and the “hERG current change (%, negative = inhibition) at 1uM” value was 11.2%. `Cc1c(C(c2ccc(O)cc2)c2c(O)c3ccccc3oc2=O)c(=O)n(-c2ccccc2)n1C` (stereo not drawn) was tested, and the “hERG current change (%, negative = inhibition) at 1uM” value was 12%. `O=C(Cn1cc(S(=O)(=O)Cc2ccccc2F)c2ccccc21)N1CCOCC1` was tested, and the “hERG current change (%, negative = inhibition) at 1uM” value was 12%. In the case of `Cc1c(CN2CCC(n3nccc3NC(=O)C3CC3)CC2)[nH]c2ccccc12`, the “hERG current change (%, negative = inhibition) at 1uM” value is reported as -34.9%. With `CCOC(=O)c1cnc(-n2nc(C)cc2C)nc1NC(C)c1ccccc1` (stereo not drawn) the “hERG current change (%, negative = inhibition) at 1uM” value was 8.98%. In the case of `Cc1ccc2[nH]c(=O)c(C(c3nnnn3C3CCCC3)N(Cc3cccnc3)Cc3ccco3)cc2c1` (stereo not drawn), the “hERG current change (%, negative = inhibition) at 1uM” value is reported as 8.5%. `O=C(Cc1ccccc1)Nc1ccccc1N1CCOCC1` was tested, and the “hERG current change (%, negative = inhibition) at 1uM” value was 1.39%. For `CSc1nc(N)c(C#N)c(-c2ccccc2Cl)c1C#N`, the “hERG current change (%, negative = inhibition) at 1uM” value was 9.93%. With `COC(=O)[C@H](CC(C)C)NC(=O)Nc1ccccc1F` the “hERG current change (%, negative = inhibition) at 1uM” value was 12.4%. In the case of `O=C1c2cccc(OCC(=O)N3CCCc4ccccc43)c2CCN1Cc1ccc(F)cc1`, the “hERG current change (%, negative = inhibition) at 1uM” value is reported as 11.8%. In the case of `N#CCCn1cc(C(=O)O)c(-c2ccc3ccccc3c2)n1`, the “hERG current change (%, negative = inhibition) at 1uM” value is reported as 4.8%. For `CC(=O)c1c(C)[nH]c(C(=O)CSc2nc3ccccc3c(=O)n2CCCN2CCOCC2)c1C`, the “hERG current change (%, negative = inhibition) at 1uM” value was 8.71%. For `COC(=O)c1sccc1NC(=O)c1ccc(C#N)cc1`, the “hERG current change (%, negative = inhibition) at 1uM” value was 16.4%. `COc1cc(/C=N/NC(=O)c2cc(-c3c(C)nn(-c4ccccc4)c3C)n[nH]2)ccc1O` was tested, and the “hERG current change (%, negative = inhibition) at 1uM” value was 8.5%. For `Cc1c(C(=O)N2CCN(C)CC2)oc2ccc(Br)cc12`, the “hERG current change (%, negative = inhibition) at 1uM” value was 14.2%. `O=C(NCC(=O)N1CCN(S(=O)(=O)c2ccccc2F)CC1)c1ccc(Br)o1` was tested, and the “hERG current change (%, negative = inhibition) at 1uM” value was 2.38%. With `CC(=O)Nc1nnc(SCC(=O)c2ccc(F)cc2)s1` the “hERG current change (%, negative = inhibition) at 1uM” value was 4.92%. In the case of `Cn1c(N2CCC(C(N)=O)CC2)nc2c1c(=O)n(Cc1cccc(Br)c1)c(=O)n2C`, the “hERG current change (%, negative = inhibition) at 1uM” value is reported as -20.3%. With `O=C(NCc1cccnc1)c1cccc(F)c1` the “hERG current change (%, negative = inhibition) at 1uM” value was 5.29%. With `CCCC(C)C(=O)Nc1ncc(S(=O)(=O)c2ccc([N+](=O)[O-])cc2)s1` (stereo not drawn) the “hERG current change (%, negative = inhibition) at 1uM” value was 14.6%. With `CC(C)=CCN1CCN(Cc2nc(-c3ccc(F)cc3)cs2)CC1CCO` (stereo not drawn) the “hERG current change (%, negative = inhibition) at 1uM” value was -47.8%. With `CCc1ccc(NC(=O)C(=S)NC2CCCCC2)cc1` the “hERG current change (%, negative = inhibition) at 1uM” value was 12.6%. `COc1ccccc1CNC(=O)[C@H](Cc1c[nH]c2ccccc12)NC(=O)[C@@H]1Cc2ccccc2CN1` was tested, and the “hERG current change (%, negative = inhibition) at 1uM” value was 9.74%.
